According to the supplement of paper PMC10681739:
In all, about 4,000 sequences were measured (“arbitrary fluorescence units”: median about 830, highest 2% from about 6,500 on). This part holds few or none of the hits.

Target: RUNX1 (UniProt Q01196)
Test: RUNX1 binding intensity (PBM fluorescence), RUNX1 alone (arbitrary fluorescence units); higher = stronger binding
Conditions: RUNX1 concentration 2 nM; ETS1 concentration 0 nM
Procedure: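 gcPBM on 36-bp genomic-derived probes (partner site mutated) containing one RUNX1 site and no ETS1 site. Recombinant human RUNX1 (2 nM) was incubated alone or with ETS1 (25 nM) and detected by anti-RUNX1 antibody fluorescence. Values are medians over 4 replicate spots (not normalised). The probes sit in constant array flanks that are not printed.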
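Also: Full-length recombinant human RUNX1 bound to double-stranded DNA microarray spots, detected with an Alexa488-labelled secondary antibody after the anti-RUNX1 primary, read as scanned spot fluorescence.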

Sequence of UniProt Q01196 (Q01196 whole entry): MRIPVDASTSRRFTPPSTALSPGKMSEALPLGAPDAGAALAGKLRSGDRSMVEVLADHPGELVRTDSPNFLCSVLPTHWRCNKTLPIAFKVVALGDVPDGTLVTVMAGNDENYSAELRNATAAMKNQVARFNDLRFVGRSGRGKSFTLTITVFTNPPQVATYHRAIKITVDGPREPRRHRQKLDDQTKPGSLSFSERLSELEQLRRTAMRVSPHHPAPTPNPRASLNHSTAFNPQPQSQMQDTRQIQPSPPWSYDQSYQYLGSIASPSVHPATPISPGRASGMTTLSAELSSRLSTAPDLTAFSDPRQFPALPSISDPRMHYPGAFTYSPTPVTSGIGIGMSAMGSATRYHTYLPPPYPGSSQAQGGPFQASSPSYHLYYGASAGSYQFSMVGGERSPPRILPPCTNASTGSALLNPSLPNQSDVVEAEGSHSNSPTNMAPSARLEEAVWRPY

Sequence	RUNX1 binding intensity
GCACGTGTTGCCTGGGGCTGCACCACAGCACCACAC	805
GACGGAATGTAGGTTTTCAGCCGTGGCCACAGGAGA	700
CGGGCCCGCAGCAGATCCTGGATCTGGAATCTCCCG	770
TGGGCGCTGACCCGCAACCAGGAGGCGGCGGACACT	842
TCCGCCCCGCCCCGCAAACTTCCAGCCGCCCTGGGC	1060
TACCAACATGAATCTTTGGGGTCTAAACCGCAAACA	4540
TGTTGTAGGGCAAGTGGTGTGTGGTATTCCTGGGGA	749
TCCTGTCCCACTGTGGTTCCTGGGATTTTTGTTGTT	957
CAGGCAGATCAGACCACAGAAGCGGAGGAGGCGGGG	846
ATGTGGTTGGGGCGGGAGCGTGCGTCCTTTCTGTGT	716
AAAGAATGTTGCGGCCAGAGAGCAGCCGCTGTCGCT	810
TATTCTTCATGTACTTAAGCTTGCTGGTGTGGTTTC	878
CTACCGGGAGTGCGGGTCGCGCTTCAGGCGGCGTCC	724
GGGGAAATCGCGGTCTTAGCATTCGGCGCGCGGCGG	826
ACAAAGTCAGTGGTAATGTGGAACGCCCGCCAAGAG	769
AGGCGGGCTGTGGTTAAGCAGTGCAGGGTGTAGGCT	2540
CCGCGCCGCTTGCTCCAGACACCGCAAGGGGGTGCT	843
GCAGCGCCTTAGACCGCTCGGCCATGCTGACTGCTT	706
AGCCAGGCAATCCGCGCCTACACAGCCCAACCACAG	951
AGCCAACAGAAAGCTGCAGAGACTAAACCACAGCAA	855
CCAGACAGATTCCTCTGGTTGTGGGTGATGGTTCCA	866

Sequence	RUNX1 binding intensity
AGCCGTTGCCGGCGCTCTACCCCGCCGCAGGCCGAG	788
CTCTGCCCGATTCCGCTGGCGGTACCTCAGAGCCGC	791
TGGCGGCGGAGACTGCCCATGCCGCGAGGCCGCAAG	688
CCTTCGTTCAGCTGGCAGTAACTAGGCAGTGGTCAC	838
ACTCAAAAACCACCTCCCCCTCAGGGAGCAAGGAGG	819
CGGAGGGAAACCGCACCCCTGCCTCTTTCATGGGCC	3110
TACCCCGCCGTAAGCCCCCTGCTCTGTGGGAACCGG	768
GTGAGCTTGCCGGCGCGCGGGGGGCGGTGCGGCTTC	717
GACCCATAGCTGAAAATTCTACCGCACTACCTCCCT	1400
GCGAAAGGAACTCCCTTTGCATGCGGTCAGAGTGCT	957
GCCTCCATTCGGAGACCAGAAAGCCCGCAGGCAAGG	807
GTAAAAGGACGTAAAGGCTTGGCCGGGCGCGGTGGC	740
CCTGCCGAGGAGGTCCCACGTCACTGCGGTTAGAGT	1610
CGTGGCGGTTGAGGGGCAGTGGTGGCGGCGCAAGCC	808
AGTTCCAGCAACCACGGCTCCCTCTTCAGGTCCCGG	844
GGACGCCGCCTGAAGCGCGACCCGCACTCCCGGTAG	767
GGTGTGGTCAACACTGGGACAAGTTCTTTCGGGTCT	1010
GGACACAGGCTCCCGCGTTACCGACACCGCGTGGGG	882
GGGGCGGCTTCAGGCGGCGTGACCTGACCGCAAGAG	1940
AGAGCCAGATCCCGCGCAGAGGACCGCGGCGACCGG	730
AGCAGCTTCACGTCTGAGGTGAAGACAGCCCGCAGC	664

Sequence	RUNX1 binding intensity
CGGGCCCGCAGATATCACACGCACCCGAAAGTCCTC	859
GCCCGGCCGCCTGCGGCCCGGCTTCAGGTCCCGTCT	953
CTGCATGACGTGTGGTTTTCATCTTCAGCAGGCGTG	1170
GGTTCATGTCCTTTTCCTCCTTGTGGTATAAAAGAG	940
GAGAGGAGGTTGTTGTCAGATACCCACAAATGAGAA	845
CTCGGCCAGGGAGCACTGAGCCACTGCGGCATCGCA	677
GCCACTATTGCCTGCCTTCTGCGGCTGAGAGTCCCA	930
GTGAGTCACTGCCTGACCATGTGGGTTTTTGGTACG	846
GCGGGGACCTGGATGTGTGTGGTGGCGGCGGCCGAA	809
ACTTACGCGGAGCGGTAATGTGAGGAGGCCTCCCGC	751
CTTAGCACTTGTGGTCAGCCTGCTTCAGGCTGTGGC	2090
GGTGGTGGTGAATCCCACAATAGGAATCTTCTCTGT	1350
GCAGCCTCCGCGGCCCCCGCCCGGCCCGCAGCGCCA	896
GAGCGGGAGCGCGCCAAGGCACGTGACCGCTTCTGT	684
TACCTACAGCAAATGAGACACACCGCAGGCCGATCC	853
GCCGCGAGTTCAGCCGGGTGGACCACAAATCCCGAG	811
TCCTGTGGCTTTGGGGTTCCTTGTTGCCTGGGCTGG	1110
CTCCGCAGCATGACTCAGGGCAGCCCTGACCACAGT	792
GCCCCAGCGTCTCCTCTTACCCACAATGCCCCGCCC	1310
TCAAAGCTGCGGGGTTTCATTGCCTGTTCCTGAACA	693
